Measurements from PubChem BioAssay (NCATS).
Values joined by “and” are separate entries in the source; they are usually repeats but may differ in a detail not shown here. Equal values may be shown once. For part of these data: “Side channel” marks fits to a control or component signal instead of the main read-out. Active and inactive are the calls of the source. Unless noted, the call rests on the fitted dose curve; in most records, active means well fitted curve in the direction sought with a large enough effect; inconclusive means small, poorly fitted or top-dose-only effect, or another doubt; inactive means no such curve, though single readings can be large; an effect the other way counts as inactive or inconclusive.

Experiments:
[1] = Cell Viability - H-4-II-E (AID 543); details: H-4-II-E rat hepatoma viability; series mostly up to 92.2 µM;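 further: potency means the concentration at half of the fitted maximal effect; cells exposed to compound for 40 hours; nearly all actives have a fitted effect of over 35% in size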
How it was run: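 qHTS, rat hepatoma H-4-II-E, 1500 cells/well; 40 hr compound exposure, 37 °C; CellTiter-Glo ATP luminescence after 20 min RT; AC50 by standard Hill fit.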

[2] = Cell Viability - Renal Proximal Tubule (AID 545); details: renal proximal tubule cells viability, primary cells of rat origin; activity change, negative = cytotoxicity: at 91.7 µM (top of the series);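 further: cells exposed to compound for 40 hours; nearly all actives have a fitted effect of over 40% in size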
How it was run: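 Primary rat renal proximal tubule cells (1000/well) were treated with compounds for 40 hr at 37 °C in complete medium. Intracellular ATP was measured by CellTiter-Glo luminescence, and AC50 values came from Hill-equation fits of concentration-response data.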

[3] = Cellular Toxicity (caspase-3) Jurkat (AID 655); details: Jurkat caspase-3 activation, luminescence; caspase-3 activation: at 92.2 µM (top of the series), DMSO = 0%, tamoxifen = 100%;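 further: cells exposed to compound for 16 h at 37 °C before reading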
How it was run: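 Jurkat cells (5000/well) in complete medium were treated with compounds for 16 hr at 37 °C, then Caspase-Glo 3/7 luminescence was read after 20 min at room temperature. Data normalized to DMSO (basal) and 100 uM tamoxifen (100%); AC50 from Hill fit.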

[4] = Cellular Toxicity (caspase-3) BJ (AID 658); details: BJ fibroblasts, caspase-3 activation, luminescence; further: potency means the concentration at half of the fitted maximal effect
How it was run: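 qHTS, BJ fibroblasts, 1000 cells/well; 5 hr preincubation, 16 hr compound, 37 °C; Caspase-Glo 3/7 reagent, 1 hr RT; luminescence. DMSO = 0%, 10 uM staurosporine = 100%. Hill-equation AC50.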

[5] = Cellular Toxicity (caspase-3) MRC-5 (AID 659); details: MRC-5 cells, luminescence; Potency: caspase-3 activation; series mostly up to 91.7 µM; further: potency means the concentration at half of the fitted maximal effect
How it was run: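 MRC-5 fibroblasts, 1500/well; 16 h cpd, 37 °C; Caspase-Glo 3/7, 1 h RT; lumi read. Norm: DMSO = 0%, 10 uM staurosporine = 100%. Hill-fit AC50 from qHTS conc-response.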

[6] = Cellular Toxicity (caspase-3) Mesangial (AID 660); details: mesangial cells, normalized: DMSO 0%, 100 µM tamoxifen 100%; at 91.7 µM (top of the series);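 further: combined caspase 3 and 7 activity read by Caspase-Glo luminescence; cells exposed to compound for 16 h before the caspase read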
How it was run: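 Luminescent Caspase-Glo 3/7 readout (aminoluciferin substrate cleavage, 20 min RT) after 16 h compound exposure at 37 °C of normal human mesangial cells. Signal increase normalized between DMSO basal and 100 uM tamoxifen; Hill-equation AC50.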

[7] = Cellular Toxicity (caspase-3) SK-N-SH (AID 661); details: SK-N-SH caspase-3 activation, qHTS; caspase-3 activation: at 91.7 µM (top of the series), DMSO as zero, staurosporine as full;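 further: cells exposed to compound for 16 hours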
How it was run: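 Luminescent Caspase-Glo 3/7 read-out after 16 hr compound exposure of SK-N-SH neuroblastoma cells at 37 °C. Signal increase normalized to DMSO (basal) and 10 uM staurosporine (100%); AC50 from Hill equation fits of qHTS concentration-response data.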

[8] = Cellular Toxicity (caspase-3) H-4-II-E (AID 663); details: H-4-II-E rat hepatoma; Potency: caspase-3 activation; caspase-3 activation: at 92.2 µM (top of the series), scaled: DMSO 0%, 100 µM tamoxifen 100%;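 further: cells exposed to compound for 16 hr before readout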
How it was run: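 H-4-II-E rat hepatoma, 1500 cells/well, 5 hr settle at 37 °C; compound 16 hr, 37 °C, complete medium; Caspase-Glo 3/7, 20 min RT; luminescence. DMSO = 0%, 100 uM tamoxifen = 100%; Hill-equation AC50.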

[9] = Cellular Toxicity (caspase-3) N2a (AID 665); details: N2a cells, luminescence; Potency: caspase-3 activation; caspase-3 activation: at 92.2 µM (top of the series), normalized: DMSO 0%, 10 µM staurosporine 100%;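 further: compound exposure lasted 16 h at 37 °C before readout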
How it was run: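 Luminescent Caspase-Glo 3/7 readout in N2a mouse neuroblastoma cells after 16 h compound exposure at 37 °C. Signal scaled to DMSO (basal) and 10 uM staurosporine (100%). Concentration-response fitted with Hill equation for AC50.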

[10] = MultiTox-Fluor Cytotoxicity Assay - LYMP1-001 - Dead Cells (AID 946); details: LYMP1-001 lymphoblastoid cells, dead-cell protease fluorescence; cytotoxicity (dead cells): at 92.2 µM (top of the series); further: potency means the concentration at half of the fitted maximal effect
How it was run: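 AC50 from Hill fit of concentration-response; data normalized to DMSO (basal) and 15 uM tetraoctylammonium bromide (100%). LYMP1-001 lymphoblastoid cells, 2500/well, 16 hr compound at 37 C; dead-cell protease fluorescence, Ex/Em 485/520.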

[11] = MultiTox-Fluor Cytotoxicity Assay - LYMP1-001 - Live Cells (AID 947); details: LYMP1-001 lymphoblastoid cells, live-cell protease fluorescence viability; series mostly up to 92.2 µM; further: potency means the concentration at half of the fitted maximal effect
[12] = MultiTox-Fluor Cytotoxicity Assay - LYMP1-002 - Live Cells (AID 955); details: LYMP1-002 lymphoblastoid live-cell protease fluorescence viability; series mostly up to 46.1 µM;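 further: potency means the concentration at half of the fitted maximal effect; cells exposed to compound for 16 hours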
How it was run: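 LYMP1-002 lymphoblastoid cells; 2500 cells/well; 16 hr compound exposure, 37 C; MultiTox-Fluor reagent 60 min RT; live-cell fluorescence Ex/Em=405/510; qHTS concentration-response, Hill-equation AC50; tetraoctylammonium bromide positive control.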

[13] = MultiTox-Fluor Cytotoxicity Assay - LYMP1-002 - Dead Cells (AID 960); details: LYMP1-002 lymphoblastoid cells, dead-cell protease fluorescence; cytotoxicity (dead cells): at 46.1 µM (top of the series); further: potency means the concentration at half of the fitted maximal effect; nearly all actives have a fitted effect of over 60% in size
How it was run: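 Readout: fluorescence at 485/520 from cell-impermeant bis-AAF-R110 cleaved by proteases leaking from damaged cells. LYMP1-002 lymphoblastoid line, 16 hr compound treatment at 37 C, concentration-response in qHTS format; Hill-equation AC50 values.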

[14] = Cell Viability - LYMP2-005 (AID 967); details: LYMP2-005 lymphoblastoid cell viability; series mostly up to 92.2 µM; further: potency means the concentration at half of the fitted maximal effect
How it was run: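 CellTiter-Glo luminescence (cellular ATP) read-out; LYMP2-005 lymphoblastoid cells, 2500/well, 5 h pre-incubation, then 24 h compound exposure at 37 C in complete medium. Tetraoctylammonium bromide positive control; AC50 by standard Hill fit.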

[15] = Cell Viability - LYMP2-015 (AID 971); details: LYMP2-015 lymphoblastoid cell viability; series mostly up to 92.2 µM; further: potency means the concentration at half of the fitted maximal effect; nearly all actives have a fitted effect of over 55% in size
How it was run: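 qHTS cytotoxicity: 2500 cells/well, 5 hr 37 C, compound 24 hr 37 C, CellTiter-Glo 30 min RT, luminescence. Loss of ATP = toxicity; AC50 via standard Hill fit.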

[16] = Cell Viability - LYMP2-019 (AID 973); details: LYMP2-019 lymphoblastoid cell line viability; series mostly up to 92.2 µM; further: potency means the concentration at half of the fitted maximal effect; nearly all actives have a fitted effect of over 55% in size
How it was run: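 qHTS, 1536-well; 2500 cells/well; 5 hr pre-incubation, 24 hr compound exposure, 37 C; CellTiter-Glo added, 30 min RT; luminescence read; AC50 via standard Hill equation.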

[17] = Cell Viability - LYMP2-025 (AID 976); details: LYMP2-025 lymphoblastoid cell viability; activity change, negative = cytotoxicity: at 92.2 µM (top of the series); further: potency means the concentration at half of the fitted maximal effect
How it was run: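 CellTiter-Glo luminescence (cellular ATP) after 24 h compound exposure at 37 C; LYMP2-025 human lymphoblastoid cells, 2500/well, complete medium. Tetraoctylammonium bromide positive control. AC50 by Hill equation fit of qHTS concentration-response.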

[18] = Cell Viability - LYMP2-002 (AID 977); details: LYMP2-002 lymphoblastoid cell viability, qHTS; activity change, negative = cytotoxic: at 92.2 µM (top of the series); further: potency means the concentration at half of the fitted maximal effect
How it was run: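 Human lymphoblastoid cells, 2500/well, complete medium; 5 h 37 C settle; compound 24 h 37 C; CellTiter-Glo, 30 min RT; luminescence. Decrease in ATP = cytotoxicity; AC50 via Hill equation.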

[19] = Cell Viability - LYMP2-006 (AID 978); details: LYMP2-006 lymphoblastoid cell viability, qHTS; series mostly up to 92.2 µM; further: potency means the concentration at half of the fitted maximal effect; nearly all actives have a fitted effect of over 60% in size
How it was run: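 Human lymphoblastoid cells, 2500 per well, were preincubated 5 hr at 37 C, then exposed to compounds for 24 hr at 37 C in complete medium. Viability was read as intracellular ATP by CellTiter-Glo luminescence; AC50 from Hill-equation fits of qHTS concentration-response data.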

[20] = Cell Viability - LYMP1-002 - Assay at 24 hr (AID 993); details: LYMP1-002 lymphoblastoid cells viability; series mostly up to 92.2 µM; further: potency means the concentration at half of the fitted maximal effect
How it was run: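 CellTiter-Glo luminescence (intracellular ATP) after 24 h compound exposure, 37 C, in LYMP1-002 human lymphoblastoid cells; decreased ATP taken as cytotoxicity. AC50 from standard Hill fit of concentration-response curves.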

[21] = qHTS Assay for Identification of Small Molecule Inducers of Hypoxia Response (AID 2120; active means well fitted curve in the direction sought with a large enough effect in the signal ratio, with a control signal flat, not every such curve was filed as active; inconclusive means small, poorly fitted or top-dose-only effect, or a change in a side signal; inactive means no such curve, though single readings can be large or run the other way; the % refers to the signal ratio; further: potency means the concentration at half of the fitted maximal effect); details: hypoxia response reporter cells, beta-lactamase ratio readout; activation: at 104 µM (top of the series)
How it was run: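 Read-out: CCF4 FRET emission ratio 460nm/530nm (excitation 405nm), converted to %Activity, with AC50 fitted across a compound titration. ME-180 cells carried an HRE-driven beta-lactamase reporter; compound exposure 17 h, 37 degrees C.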

[22] = molecular target: Estrogen receptor (Homo sapiens) (UniProt P03372); experiment: qHTS assay for small molecule antagonists of estrogen receptor alpha signaling (AID 588513; active means well fitted curve in the direction sought with a large enough effect in the signal ratio, with a control signal flat, not every such curve was filed as active; inconclusive means small, poorly fitted or top-dose-only effect, or effect the other way, or a change in a side signal; inactive means no such curve, though single readings can be large or run the other way; the % refers to the signal ratio; further: potency means the concentration at half of the fitted maximal effect); details: ER-alpha-UAS-bla HEK293, beta-lactamase ratio, antagonist mode; activity, negative = inhibition: at 76.9 µM (top of the series) unless noted
Chain of UniProt P03372 (P03372 whole entry, looked up): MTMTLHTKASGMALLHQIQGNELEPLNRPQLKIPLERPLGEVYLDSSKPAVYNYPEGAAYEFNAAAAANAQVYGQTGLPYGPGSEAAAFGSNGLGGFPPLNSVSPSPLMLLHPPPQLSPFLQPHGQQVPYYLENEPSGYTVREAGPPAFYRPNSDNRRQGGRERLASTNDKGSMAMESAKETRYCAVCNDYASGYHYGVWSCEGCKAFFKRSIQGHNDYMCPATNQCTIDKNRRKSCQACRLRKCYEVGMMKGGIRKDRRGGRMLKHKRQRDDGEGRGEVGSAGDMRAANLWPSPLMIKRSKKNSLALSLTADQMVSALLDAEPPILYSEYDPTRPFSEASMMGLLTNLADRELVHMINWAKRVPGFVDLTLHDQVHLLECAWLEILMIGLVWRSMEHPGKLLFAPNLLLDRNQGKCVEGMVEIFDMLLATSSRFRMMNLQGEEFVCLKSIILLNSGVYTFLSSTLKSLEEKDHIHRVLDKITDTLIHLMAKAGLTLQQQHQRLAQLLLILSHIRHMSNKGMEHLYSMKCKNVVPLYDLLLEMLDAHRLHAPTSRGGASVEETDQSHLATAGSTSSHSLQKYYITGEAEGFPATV
How it was run: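 ER-alpha-UAS-bla GripTite HEK 293 cells in medium with 2% charcoal/dextran-treated FBS were preincubated 4 h at 37 C, dosed with compound (1:2 titration), stimulated with 0.5nM 17-beta-estradiol for 18 h, then read by CCF4 beta-lactamase fluorescence.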

[23] = molecular target: Estrogen receptor (Homo sapiens) (UniProt P03372); experiment: qHTS assay for small molecule agonists of estrogen receptor alpha signaling (AID 588514; calls by dose curve; further: nearly all actives have a fitted effect of over 70% in size; further: potency means the concentration at half of the fitted maximal effect;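 on activation: 0% = vehicle only and 100% = reference agonist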); details: ER-alpha-UAS-bla HEK293, beta-lactamase ratio, 18 h; activation: at 76.8 µM (top of the series), percent of full estradiol response, vehicle zero
How it was run: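 Read-out: CCF4 fluorescence from a beta-lactamase reporter in ER-alpha-UAS-bla HEK 293 cells after 18 hrs of compound exposure at 37 C. Normalized to 20 nM 17-beta-estradiol (100%) and DMSO (0%).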

[24] = molecular target: Bile acid receptor (Homo sapiens) (UniProt Q96RI1); experiment: qHTS assay for small molecule antagonists of farnesoid X receptor signaling (AID 588526; calls by dose curve; further: potency means the concentration at half of the fitted maximal effect; on activity change, negative = inhibition: on the % scale 0 is the no-effect control and ±100 the full control effect); details: HEK293T FXR-UAS-bla, beta-lactamase ratio, antagonist mode; activity change, negative = inhibition: at 76.7 µM (top of the series)
How it was run: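 Antagonist mode: titrated compounds tested against chenodeoxycholic acid stimulation (normalized to 50 uM CDCA and DMSO) in GeneBLAzer HEK293T cells for 16 h. Beta-lactamase read by CCF4 fluorescence; IC50 from Hill fits.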

[25] = molecular target: Bile acid receptor (Homo sapiens) (UniProt Q96RI1); experiment: qHTS assay for small molecule agonists of farnesoid X receptor signaling (AID 588527; calls by dose curve;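 further: 0% = vehicle basal and 100% = reference agonist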); details: HEK293T FXR-UAS-bla, beta-lactamase ratio, 16 h; activation: hits give high values
How it was run: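 FXR-UAS-bla HEK293T, 10% dialyzed FBS; cpds up to 92 uM titration, 16 h 37 C; CCF4 dye 2 h RT; fluorescence. Normalized to chenodeoxycholic acid 100 uM (100%) and DMSO (0%); Hill fit gives EC50, efficacy.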

[26] = molecular target: Glucocorticoid receptor (Homo sapiens) (UniProt P04150); experiment: qHTS assay for small molecule agonists of glucocorticoid receptor signaling (AID 588532; active means well fitted curve in the direction sought with a large enough effect in the signal ratio, with a control signal flat; inconclusive means small, poorly fitted or top-dose-only effect, or a change in a side signal; inactive means no such curve, though single readings can be large or run the other way; the % refers to the signal ratio; further: potency means the concentration at half of the fitted maximal effect); details: HeLa MMTV-bla, beta-lactamase ratio, agonist, 18 h; activation: hits give high values, percent of dexamethasone control, DMSO zero
How it was run: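 Cells were plated and rested 3-5 h at 37 C, compounds were added in titration and incubated 18 h, then CCF4 substrate was loaded for 2 h at RT before reading blue/green fluorescence. EC50 came from Hill-equation fitting.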

[27] = molecular target: Glucocorticoid receptor (Homo sapiens) (UniProt P04150); experiment: qHTS assay for small molecule antagonists of glucocorticoid receptor signaling (AID 588533; active means well fitted inhibition curve with a large enough effect in the signal ratio, with a control signal flat, not every such curve was filed as active; inconclusive means small, poorly fitted or top-dose-only effect, or effect the other way, or a change in a side signal; the % refers to the signal ratio); details: HeLa MMTV-bla, GRE beta-lactamase ratio, antagonist mode, 18 h; activity change, negative = inhibition: at 76.8 µM (top of the series)
[28] = molecular target: Peroxisome proliferator-activated receptor delta (Homo sapiens) (UniProt Q03181); experiment: qHTS assay for small molecule antagonists of peroxisome proliferator-activated receptor delta signaling (AID 588535; active means well fitted inhibition curve with a large enough effect in the signal ratio, with a control signal flat, not every such curve was filed as active; inconclusive means small, poorly fitted or top-dose-only effect, or effect the other way, or a change in a side signal; inactive means no such curve, though single readings can be large or run the other way; the % refers to the signal ratio; further: potency means the concentration at half of the fitted maximal effect); details: HEK293T PPARd-UAS-bla, beta-lactamase FRET ratio, 18 h; activity change, negative = inhibition: at 76.7 µM (top of the series)
Chain of UniProt Q03181 (Q03181 whole entry, looked up): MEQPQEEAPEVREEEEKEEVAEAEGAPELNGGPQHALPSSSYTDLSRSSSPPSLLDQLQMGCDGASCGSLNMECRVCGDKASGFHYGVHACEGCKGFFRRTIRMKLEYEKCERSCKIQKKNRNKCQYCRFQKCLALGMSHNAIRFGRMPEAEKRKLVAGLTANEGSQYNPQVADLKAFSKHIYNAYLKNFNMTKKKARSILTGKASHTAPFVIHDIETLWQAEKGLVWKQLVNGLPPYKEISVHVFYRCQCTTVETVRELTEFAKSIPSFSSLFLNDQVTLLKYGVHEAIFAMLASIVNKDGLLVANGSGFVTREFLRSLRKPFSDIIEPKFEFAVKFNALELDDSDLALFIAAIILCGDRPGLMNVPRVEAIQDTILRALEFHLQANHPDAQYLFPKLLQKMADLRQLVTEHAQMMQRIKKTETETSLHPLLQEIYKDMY
How it was run: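 Beta-lactamase reporter read-out (405 nm excitation, 460/530 nm emission) after CCF4 loading for 2 hrs at RT. HEK293T PPAR-delta-UAS-bla cells, 2% charcoal/dextran FBS, compounds for 18 hrs at 37 C. Hill fit gave IC50 and efficacy.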
Tags describe the fitted curve by direction and shape or compound fluorescence and quenching.

C=CC(=O)OCCOCCOCCOCCOC(=O)C=C
active: Potency [1] 20 µM | activity change, negative = cytotoxicity [2] -95.5% and -108% | Potency [10] 50.1 µM | Potency [11] 31.6 µM and 39.8 µM | Potency [12] 12.6 µM and 15.8 µM | Potency [13] 20 µM and 25.1 µM | Potency [14] 10 µM and 15.8 µM | Potency [15] 25.1 µM and 20 µM | Potency [16] 25.1 µM and 31.6 µM | Potency [17] 25.1 µM | Potency [18] 15.8 µM and 25.1 µM | Potency [19] 25.1 µM | Potency [20] 25.1 µM | Potency [22] 39.8 µM [inconclusive] | Potency [27] 39.8 µM | Potency [28] 28.2 µM
inconclusive: caspase-3 activation [3] -5.11% and -3.71% | Potency [4] 31.6 µM [rising, single point] | Potency [5] 79.4 µM [rising, single point] | caspase-3 activation [7] 16.6% and 14.1% | caspase-3 activation [8] -3.27% and -2.86% | Potency [21] 50.1 µM [side channel, falling, single point] | Potency [23] 28.2 µM [activator, single point] | activation [23] 29% | Potency [24] 44.7 µM [side channel, rising, single point] | activity change, negative = inhibition [24] -83.8% | activation [25] 19.7% | Potency [26] 56.2 µM [side channel, falling, partial curve, poor fit]
inactive: caspase-3 activation [6] 6.84% and 13% | Potency [9]
